Test results: PubChem BioAssay AID504832 (National Center for Advancing Translational Sciences (NCATS), 2011)
Several values for one entry are separate records, joined by “and”; a condition that tells them apart may be missing. Equal values may be shown once. The whole screen tested about 310,000 compounds, of which about 18,000 (5.8%) were called active. The inconclusive results got no clear call from the source; some entries with a clear call stand among them for comparison. Calls come from the whole dose curve; as a rule, active = well fitted inhibition curve with a large enough effect; inconclusive = small, poorly fitted or top-dose-only effect, or another doubt; inactive = no such curve, though single readings can be large or run the other way. Potencies of inconclusive entries are doubtful fits and often do not repeat.
% is set by controls: 0 for no effect and ±100 for the full control effect; potency is the fitted concentration of half-maximal effect; tags give direction and shape of the fitted curve.

Test: Primary qHTS for delayed death inhibitors of the malarial parasite plastid, 48 hour incubation
Settings: P. falciparum luciferase growth in erythrocytes; series mostly up to 28.7 µM; activity change, negative = inhibition: at the top concentration
Procedure, shortened: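 Luciferase-expressing parasites in RBCs, 2% Hct / 0.1% parasitemia final; RPMI 1640 + 0.5% Albumax; 37 C, 5% CO2, one generation; luminescence read-out, lower signal = inhibition.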
In the case of NNC(=O)CNC(c1ccccc1)c1cc(Br)ccc1NC(=O)c1cccc(Cl)c1 (configuration not stated), the Potency is reported as active: 13.1 µM.
In the case of O=C(CNc1ccccc1)N/N=C/c1cn(-c2ccccc2)nc1-c1ccccc1, the Potency is reported as active: 11.7 µM.
In the case of O=C(CCl)N1CCN(S(=O)(=O)c2ccc3ccccc3c2)CC1, the Potency is reported as inconclusive: 18.5 µM [inhibitor, single point].
In the case of CCNC(=O)c1c(N)sc2c1CCCCC2, the Potency is reported as inconclusive: 10.4 µM [inhibitor, single point].
With CCCNC(=O)c1ccc(COc2ccc(C)cc2)o1 the Potency was inconclusive: 18.5 µM [inhibitor, single point].
In the case of O=C(NC1CC1)C1=C[C@H](c2ccc(Br)cc2)C[C@H](OCc2ccc(CO)cc2)O1, the Potency is reported as inconclusive: 13.1 µM [inhibitor, single point].
For CC(NC(=O)COc1ccccc1)C(=O)N1CCN(c2ccccc2)CC1 (configuration not stated), the Potency was inconclusive: 11.7 µM [inhibitor, single point].
In the case of COc1ccccc1N(C)S(=O)(=O)c1ccc(C(=O)N(C)Cc2ccc(OC(F)F)cc2)cc1, the Potency is reported as active: 11.7 µM.
In the case of Cc1ccc(C)c(NC(=O)Cc2csc(-c3ccccc3)n2)c1, the “activity change, negative = inhibition” value is reported as inactive: 13.8%.
With CCC(=O)Nc1cccc(NC(=S)NC(=O)c2cccs2)c1 the “activity change, negative = inhibition” value was inactive: 171%.
With CCOC(=O)C1(Cc2cccc(F)c2)CCN(Cc2cn(CC)nc2C)CC1 the “activity change, negative = inhibition” value was inactive: 0.0175%.
For CCCC(=O)Nc1ccc(C(=O)COC(=O)c2cc(C)oc2C)cc1, the Potency was inconclusive: 18.5 µM [inhibitor, single point].
For Clc1ccc(-c2csc(=Nc3cccnc3)n2CCCn2ccnc2)cc1Cl, the Potency was active: 11.7 µM.
With CCc1ccc2[nH]c(=O)c(C(c3nnnn3Cc3ccco3)N3CCC(C)CC3)cc2c1 (configuration not stated) the Potency was inconclusive: 11.7 µM [inhibitor, single point].
In the case of O=C(N/N=C/c1ccccc1O)NC12CC3CC(CC(C3)C1)C2, the Potency is reported as active: 1.17 µM.
In the case of Clc1cccc(/C=N/Nc2nnc(Cl)c3ccccc23)c1, the Potency is reported as inconclusive: 0.0029 µM [inhibitor, full curve, poor fit].
With CCOC(=O)c1sc(NC(=O)CCN2CCN(CC)CC2)c(C(=O)OCC)c1C the Potency was inconclusive: 13.1 µM [inhibitor, partial curve, poor fit].
For COc1ccc(NC(=O)c2cc3ccccc3cc2OC)cc1, the Potency was inconclusive: 5.22 µM [inhibitor, single point].
For Cc1ccc(S(=O)(=O)Cn2nnnc2C(CC(C)C)N2CCN(C3CCCC3)CC2)cc1 (configuration not stated), the Potency was inconclusive: 10.4 µM [inhibitor, single point].
In the case of COC(=O)/C=C/C(=O)N1CCN(c2ccccc2C)CC1, the “activity change, negative = inhibition” value is reported as inactive: -16.8%.
With CC(C)C(=O)N1CCN(c2ccc(NC(=O)c3cccs3)cc2)CC1 the Potency was inconclusive: 11.7 µM [inhibitor, single point].
For O=C(NC1CCCCC1)c1cc([N+](=O)[O-])ccc1N1CCCC1, the Potency was inconclusive: 0.0165 µM [inhibitor, full curve].
With Cc1ccccc1N1CCN(C(=O)c2ccccc2NC(=O)/C=C\C(=O)O)CC1 the “activity change, negative = inhibition” value was inactive: 3.37%.
For COc1ccc(OC)c(NC(=O)CSc2nnc(-c3cnccn3)n2C)c1, the Potency was inconclusive: 18.5 µM [inhibitor, single point].
For CN1CCN(CC(=O)N2c3ccccc3C(C)(c3ccccc3)CC2(C)C)CC1 (configuration not stated), the Potency was inconclusive: 11.7 µM [inhibitor, single point].
With Cc1cc(C(=O)Cn2nc(C(=O)O)c3ccccc3c2=O)c(C)n1-c1ccc(F)cc1 the “activity change, negative = inhibition” value was inactive: 27.4%.
For CCOC(=O)C(=O)N(CC)C1CCS(=O)(=O)C1 (configuration not stated), the “activity change, negative = inhibition” value was inactive: 54.2%.
With Cc1ccc(S(=O)(=O)N2CCCC2)cc1C(=O)Nc1ccc(-n2cnnn2)cc1 the Potency was inconclusive: 18.5 µM [inhibitor, partial curve, poor fit].
In the case of COc1cc(NC(=O)CSc2nnc3n2C(C)(C)Cc2ccccc2-3)cc(OC)c1, the Potency is reported as inconclusive: 10.4 µM [inhibitor, single point].
In the case of Cc1ccc(C(=O)Nc2ccc3c(c2)OCCO3)c(Cl)c1, the “activity change, negative = inhibition” value is reported as inactive: 154%.
With O=C(CSc1nnc(Cc2cccs2)n1Cc1ccco1)Nc1cccc(Cl)c1 the Potency was inconclusive: 18.5 µM [inhibitor, single point].
For COc1cccc(CC(=O)N2CCCC(CO)(Cc3ccc(F)cc3F)C2)c1 (configuration not stated), the “activity change, negative = inhibition” value was inactive: -8.62%.
With Cc1cc(O)cc2c1C(c1ccc(F)cc1)CC1(CC(C)(C)NC(=S)N1)O2 (configuration not stated) the Potency was inconclusive: 14.7 µM [inhibitor, partial curve, poor fit].
In the case of CCSc1ccccc1C(=O)N1CCN(c2ccccc2F)CC1, the Potency is reported as inconclusive: 3.29 µM [inhibitor, single point].
With CC(=O)c1ccc(N2Cc3ccccc3/C2=N\C(=O)Nc2ccccc2)cc1 the “activity change, negative = inhibition” value was inactive: 75.8%.
In the case of CCC(=O)N(Cc1ccco1)c1nc(-c2cc(OC)ccc2OC)cs1, the Potency is reported as inconclusive: 13.1 µM [inhibitor, single point].
With Cc1ccc(-n2c([S-])c(C(=O)NC(C)c3ccccc3)[n+]3ccccc23)cc1 (configuration not stated) the Potency was inconclusive: 18.5 µM [inhibitor, single point].
In the case of COc1ccc2cc(C(c3nnnn3C(C)(C)C)N3CCSCC3)c(=O)[nH]c2c1 (configuration not stated), the Potency is reported as active: 11.7 µM.
For O=C(O)/C=C/C(=O)c1ccc(O)cc1, the Potency was inconclusive: 0.415 µM [inhibitor, full curve, poor fit].
For CCOC(=O)c1cc2c(OC)ccc(OC)c2n1CC(=O)c1ccccc1, the Potency was inconclusive: 2.62 µM [inhibitor, full curve].
In the case of CC(C)c1nnc(NC(=O)C2CCN(c3cnccn3)CC2)s1, the Potency is reported as inconclusive: 16.5 µM [inhibitor, single point].
In the case of CC1CCC(NC(=O)C2CCN(C(=O)NC3CCCCC3)CC2)CC1 (configuration not stated), the “activity change, negative = inhibition” value is reported as inactive: 9.39%.
For COc1cc(C)c(CN2CCC(n3nccc3NC(=O)C3CCOC3)CC2)cc1C (configuration not stated), the “activity change, negative = inhibition” value was inactive: 15.3%.
With COc1cccc(CNC(=O)C(=O)NCCC2CCCCN2S(=O)(=O)c2ccccc2)c1 (configuration not stated) the Potency was inconclusive: 11.7 µM [inhibitor, single point].
For CCCCC(CC)COC(=O)C(C#N)=C(c1ccccc1)c1ccccc1 (configuration not stated), the Potency was active: 12 µM and active: 2.62 µM.
In the case of O=C(Nc1ccccc1N1CCN(C(=O)c2ccccc2)CC1)c1cc2ccccc2o1, the Potency is reported as inconclusive: 2.33 µM [inhibitor, single point].
With Nc1c2c(nc3ccccc13)CCCC2 the Potency was inconclusive: 13.5 µM [inhibitor, single point] and inconclusive: 14.7 µM [inhibitor, single point] and inconclusive: 13.1 µM [inhibitor, single point].
With COC(=O)C1CCN(c2c([N+](=O)[O-])cc(C(F)(F)F)cc2[N+](=O)[O-])CC1 the Potency was inconclusive: 18.5 µM [inhibitor, partial curve, poor fit].
In the case of CC1Cc2ccccc2N1C(=O)CNc1cccc(S(=O)(=O)N2CCCC2)c1 (configuration not stated), the Potency is reported as inconclusive: 0.0026 µM [inhibitor, full curve, poor fit].
For CN(C)/C=C(\C=O)c1onc(-c2ccccc2Cl)c1C#N, the Potency was inconclusive: 9.28 µM [inhibitor, single point].
With CCCc1nc2ccccc2c(C(=O)OCC(=O)N2CCc3ccccc32)c1CC the Potency was inconclusive: 18.5 µM [inhibitor, single point].
For O=Cc1cnc(N2CCN(Cc3ccccc3)CC2)s1, the “activity change, negative = inhibition” value was inactive: 17%.
With Cc1cc(C(=O)N/N=C/c2cc(Br)ccc2OC(=O)c2ccccc2)n[nH]1 the “activity change, negative = inhibition” value was inactive: 0%.
For c1csc(CNc2ncnc3ccc(-c4ccc5c(c4)OCO5)cc23)c1, the Potency was inconclusive: 18.5 µM [inhibitor, partial curve, poor fit] and inconclusive: 9.28 µM [inhibitor, single point].
In the case of O=C1CC2(CCCC2)CC(=O)N1c1ccccc1, the Potency is reported as inconclusive: 0.329 µM [inhibitor, partial curve, poor fit].
With CCC(=O)N1CC2(CC(c3cccc(NC(=O)COc4ccc(Cl)cc4)c3)=NO2)C[C@@H]1C(N)=O (some centres not stated) the Potency was inconclusive: 13.1 µM [inhibitor, single point].
With COc1ccccc1NC(=O)c1cc(N2C(=O)C3C4CCC(C4)C3C2=O)ccc1Cl (configuration not stated) the Potency was inconclusive: 11.7 µM [inhibitor, partial curve, poor fit].
For CCCOc1ccc(N2C(=O)CC(N(CCc3ccc(OC)c(OC)c3)C(=S)Nc3ccccc3)C2=O)cc1 (configuration not stated), the Potency was active: 2.08 µM.
With CCc1ccccc1N(CC(=O)NC(C)(C)CC)C(=O)CCC(=O)Nc1nccs1 the Potency was inconclusive: 9.28 µM [inhibitor, partial curve, poor fit].
In the case of CCCC[C@H]1COCCS(=O)(=O)N1Cc1cccc([N+](=O)[O-])c1, the “activity change, negative = inhibition” value is reported as inactive: 1.46%.
With COCCNC(=S)N1CCc2cc(OC)c(OC)cc2C1COc1cc(C)cc(C)c1 (configuration not stated) the Potency was active: 11.7 µM.
With N#CC1=C(N)Oc2c(O)cc3ccccc3c2C1c1ccsc1 (configuration not stated) the Potency was inconclusive: 10.4 µM [inhibitor, partial curve, poor fit].
With CCOC(=O)c1sc2nccc(N(C)C)c2c1N=CN(C)C the “activity change, negative = inhibition” value was inactive: 17.2%.
For CC1Sc2ccc(S(=O)(=O)N3CCC(C(=O)NCc4ccc(Cl)cc4)CC3)cc2NC1=O (configuration not stated), the Potency was active: 10.4 µM.
For CN1CC(c2ccccc2)C2(SC(=S)N(Cc3ccco3)C2=O)C12C(=O)Nc1ccccc12 (configuration not stated), the Potency was active: 11.7 µM.
With COc1ccc(N(CC(=O)N/N=C(\C)c2cccs2)S(=O)(=O)c2ccccc2)cc1Cl the Potency was inconclusive: 13.1 µM [inhibitor, single point].
For COC(=O)c1cc(OC)c(OC)cc1NC(=O)CSc1ccccc1, the Potency was inconclusive: 0.0329 µM [inhibitor, full curve, poor fit].
